From paper PMC6919601, “Identification of Plasmodium dipeptidyl aminopeptidase allosteric inhibitors by high throughput screening” (PLoS ONE, 2019)
“And” between values parts separate entries of the source, which are not always exact repeats. Identical values can stand only once. Among all 110,000 compounds or so, about 230 (0.21%) showed an effect of 50% or more. The list shows a part of the results.

Target: DPAP1 (Plasmodium falciparum, UniProt Q8IIJ9)
Test: primary screen, percent inhibition; read by cleavage of a fluorogenic dipeptide substrate; higher = more effect of the substance
Parameters: species or system P. falciparum D10 trophozoite lysates; single well
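Also: 30 min substrate incubation versus DMSO and 10 µM JCP410 controls.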

Chain of DPAP1 (Q8IIJ9 whole entry, looked up): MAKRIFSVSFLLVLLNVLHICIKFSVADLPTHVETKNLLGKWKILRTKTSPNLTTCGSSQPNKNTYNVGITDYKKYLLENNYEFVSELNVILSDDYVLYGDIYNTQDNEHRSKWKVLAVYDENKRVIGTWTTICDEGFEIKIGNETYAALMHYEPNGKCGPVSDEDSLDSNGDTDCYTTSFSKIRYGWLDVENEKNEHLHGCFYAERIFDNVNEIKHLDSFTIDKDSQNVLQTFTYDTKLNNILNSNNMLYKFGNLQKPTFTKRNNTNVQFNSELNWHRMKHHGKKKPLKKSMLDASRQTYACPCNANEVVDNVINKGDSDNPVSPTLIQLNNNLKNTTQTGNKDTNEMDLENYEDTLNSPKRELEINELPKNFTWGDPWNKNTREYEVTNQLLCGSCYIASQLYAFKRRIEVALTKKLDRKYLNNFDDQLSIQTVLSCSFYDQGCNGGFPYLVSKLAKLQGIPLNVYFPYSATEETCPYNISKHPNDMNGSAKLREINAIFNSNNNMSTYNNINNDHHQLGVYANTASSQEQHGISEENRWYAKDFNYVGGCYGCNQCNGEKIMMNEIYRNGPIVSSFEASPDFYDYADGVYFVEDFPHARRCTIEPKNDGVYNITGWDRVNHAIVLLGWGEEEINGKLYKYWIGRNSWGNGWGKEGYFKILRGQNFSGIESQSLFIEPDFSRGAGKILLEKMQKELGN

| Compound | % Inhibition @ 10 uM |
| --- | --- |
| O=C(N[C@@H](CCc1ccccc1)C(=O)c1nc2ccccc2o1)OCC1CCCCC1 | -1.83% |
| COc1ccc(NC(=O)CN(c2cc(Cl)ccc2OC)S(C)(=O)=O)cc1OC | -1.22% |
| COc1ccc2nc(C)cc(Nc3ccc(N(C)C)cc3)c2c1 | -2.76% |
| CCc1ccc(OCC(=O)Nc2ccc3oc(-c4cccnc4)nc3c2)cc1 | 2.64% |
| CC1(C)[C@H]2CC=C(CN3CCN(c4ccccc4F)CC3)[C@@H]1C2 | 2.7% |
| COc1ccc2c(c1)CC(C1(O)C(=O)N(C)c3ccccc31)C2=O (stereo not drawn) | -5.46% |
| O=C(O)c1ccc(/C=C2/NC(=O)N(c3ccc(Cl)cc3)C2=O)cc1 | -18.6% |
| COc1ccc(-c2cn3nc(N4CCCC(C(=O)O)C4)sc3n2)cc1 (stereo not drawn) | -3.34% |
| OC1=C2C(=Nc3ncnn3C2c2ccccc2OC(F)F)CCC1 (stereo not drawn) | -3.37% |
| CCNC(=O)/C(=C\c1ccccc1)NC(=O)c1cccc(Br)c1 | -2.68% |
| CCOC(=O)C1CCN(Cc2ccc(C(C)C)cc2)CC1 | -5.41% |
| COc1ccc(CCNC(=O)CSc2nncn3c2cc2oc(C)cc23)cc1OC | -9.85% |
| O=C(O)c1cccc([N+](=O)[O-])c1C(=O)Nc1cccc2ccccc12 | -3.38% |
| Cn1c(=O)c2c(nc(NCCCn3ccnc3)n2Cc2cccc3ccccc23)n(C)c1=O | 6.7% |
| CN(C)C(=O)N1CCCC(C(=O)NCCc2ccccc2)C1 (stereo not drawn) | 3.66% |
| Cc1cc(C)c(C)c(S(=O)(=O)Nc2ccc(C(=O)N3CC(C)OC(C)C3)cc2)c1C (stereo not drawn) | 0.709% |
| Fc1ccccc1N1CCN(Cc2ccncc2)CC1 | -3.42% |
| COc1ccc(-c2ncc3ccccc3n2)cc1 | -0.622% |
| COc1cc(OC)c(/C=C/[N+](=O)[O-])c([N+](=O)[O-])c1 | -3.58% |
| O=C(NCCCc1ccccc1)c1cccs1 | -5.34% |
| COc1cc(NC(=O)CCC2CCCCC2)cc(OC)c1OC | -2.58% |
| Cc1ccc(S(=O)(=O)N(CC(=O)N2CCc3ccccc3C2)c2ccccc2)cc1 | -9.87% |
| COc1ccc(/C=C2/C(=O)N(c3ccccc3)C(=S)N(c3ccccc3OC)C2=O)c(OC)c1 | -4.21% |
| CCN(CC)S(=O)(=O)c1cc(C(=O)Nc2cccc(C)c2)ccc1F | 13.2% |
| COc1ccc(/C(O)=C/C(C)=N/c2cccc(C(F)(F)F)c2)cc1 | -0.105% |

| Compound | % Inhibition @ 10 uM |
| --- | --- |
| COc1ccc(Cl)cc1-n1c(C)cc(/C=C2\C(=N)N3N=C(S(C)(=O)=O)SC3=NC2=O)c1C | -1.54% |
| Cn1c(=O)[nH]c2nnc(-c3cccnc3)nc2c1=O | 9.1% |
| COc1ccc(-c2cc(C)no2)cc1S(=O)(=O)N(C)CCCc1ccco1 | -0.166% |
| Cn1c2ccccc2c2cc(C3NC(C(=O)O)CS3)ccc21 (stereo not drawn) | -1.06% and 0.907% |
| CC(=O)c1ccc(C(=O)N(CCCN(C)C)c2nc3c(C)cccc3s2)cc1 | 0.745% |
| CCCn1c(C(O)c2ccc(C)cc2)nc2ccccc21 (stereo not drawn) | 10.6% |
| Cc1s/c(=N\C(=O)c2ccco2)n(C)c1-c1ccc(F)cc1 | 0.145% |
| CC(=O)c1cccc(NC(=O)CN(C)S(=O)(=O)c2cc(Cl)ccc2Cl)c1 | -2.8% |
| O=C(c1cccc(F)c1)N1CCN(c2ccccc2F)CC1 | -6.68% |
| Fc1ccc(N2CCN(Cc3c(F)cccc3F)CC2)cc1 | 4.68% |
| O=C(O)C1CCCc2c1[nH]c1ccc(Cl)cc21 (stereo not drawn) | -3.5% |
| Cn1c2c(c(=O)n(C)c1=O)CN(CCN1CCOCC1)CN2 | -1.06% |
| Cc1ccc(C2C(=O)N(C3CCCCC3)CC(=O)N2Cc2ccccc2Cl)cc1 (stereo not drawn) | -0.406% |
| COc1ccc(N(C(C)C(=O)Nc2cc(C)ccc2OC)S(C)(=O)=O)cc1 (stereo not drawn) | -11.1% |
| CCN(CC)C(=O)CSc1nc2nnc(C)c-2c(N)n1-c1cc(Cl)ccc1C | 10.1% |
| CCO/C(O)=C1/C(C)=Nc2ncnn2C1c1ccc(O)cc1 (stereo not drawn) | -0.339% |
| O=C(C1c2ccccc2Oc2ccccc21)N1CCN(c2ccc(F)cc2)CC1 | 3.45% |
| O=C(CNC(=O)c1ccco1)c1ccc(F)cc1 | -0.132% |
| CCOC(=O)c1c(S(=O)(=O)NC(C)CC)c(C)n(C)c1C (stereo not drawn) | 0.711% |
| COc1ccc(C2=C/C(=C/c3ccc4c(c3)OCO4)C(=O)O2)c(OC)c1 | -3.74% |
| CCCN(CCO)Cc1ccccc1Cl | -3.57% |
| COc1ccc(OC)c(CCNC(=O)C2CCN(c3nc4c(C)cc(C)cc4s3)CC2)c1 | 0.137% |
| COc1ccc(CN2CCN(C(=O)c3ccc(-n4ccc5ccccc54)s3)CC2)c(OC)c1OC | 9.39% |
| CNC(=S)N1CCn2cccc2C1c1ccc(F)cc1 (stereo not drawn) | -1.43% |
| CCOC(=O)C1=C(CSc2nccn2C)NC(=O)NC1c1cc(C)ccc1C (stereo not drawn) | -0.834% |

| Compound | % Inhibition @ 10 uM |
| --- | --- |
| Cc1c(CC(=O)N2CCOCC2)c(=O)oc2cc3occ(-c4ccc(Cl)cc4)c3cc12 | 2.54% |
| Cc1cc2nnc(SCC(=O)O)n2c2ccccc12 | -2.19% |
| CCNc1cc2oc(=O)cc(C)c2cc1C | -0.13% |
| COc1cccc(C(=O)Nc2ccccc2C(=O)Nc2cccc(Cl)c2)c1 | -0.795% |
| Cc1sc(C(=O)O)cc1-c1ccc(C(=O)N[C@@H](Cc2c(F)cccc2F)C(=O)NCC#N)cc1 | 0.079% |
| CCOc1ccc(CNc2ncc(-c3ccccc3)n2C)cc1 | -1.11% |
| COc1ccc(Br)cc1CNCCc1ccc2c(c1)OCO2 | -6.3% |
| Cn1c(C(F)(F)F)cc(=O)n(-c2ccc3c(Cl)nn(CC#N)c3c2)c1=O | -1.49% |
| O=C(Nc1sc2c(c1C(=O)O)CCC2)c1ccc(Br)cc1 | 1.78% |
| N#Cc1c(NC(=O)c2cc(-c3ccc(F)cc3)on2)sc2c1CCCC2 | 4.5% |
| Cc1ccc(CNC(=O)c2cc3c(-c4ccc(Cl)cc4)nn(C)c3s2)o1 | -4.96% |
| O=C(Nc1cccnc1)c1nc2ncccn2n1 | -3.53% |
| O=C(CCc1ccc(S(=O)(=O)NCc2ccccc2)cc1)N1CCN(c2ccc(F)cc2)CC1 | -0.95% |
| Cc1sc(NC(=O)Nc2ccc(Cl)c(Cl)c2)c(C(N)=O)c1C | -4.03% |
| Cc1cc(C)c2c(n1)SCC(=O)N2CCCC(=O)NCc1ccc(Cl)cc1 | -2.59% |
| Cc1ccc(-n2nc3c(=O)n(CCCC(=O)N4CCC(C)CC4)nc(C)c3c2C)cc1 | -2.87% |
| CC(C)C(=O)NCCCc1nc2ccccc2n1Cc1ccccc1 | -5.92% |
| COc1ccc(Cl)cc1S(=O)(=O)NCCC12CC3CC(CC(C3)C1)C2 | -3.04% |
| CCN(CC)S(=O)(=O)c1ccc(NC(=O)COc2ccc(C)cc2Br)cc1 | 0.795% |
| CCN1CCN(Cc2c(C)n(C)n(-c3ccccc3)c2=O)CC1 | 1.88% |
| CCOC(=O)c1c(C)[nH]c(C)c1S(=O)(=O)NCCc1ccc(Cl)cc1 | 1.74% |
| Cc1c(Cl)cccc1NC(=O)CSCc1cccc(Br)c1 | -0.0217% |
| COc1ccc(/C=C2\C(=O)NC(=S)N(c3ccc(Cl)cc3)C2=O)c(OC)c1 | -5.92% |
| O=C(CCC(=O)N1CC2CC(C1)c1cccc(=O)n1C2)NCCc1ccccc1 (stereo not drawn) | -1.6% |
| CCc1ccc(N2CC(C(=O)Nc3ccc(Br)c(OC)c3)CC2=O)cc1 (stereo not drawn) | -3.6% |

| Compound | % Inhibition @ 10 uM |
| --- | --- |
| Cc1cc(C)cc(NC(=O)CC2NC3CCCCC3NC2=O)c1 (stereo not drawn) | 3.04% |
| O=C(Nc1cccc([N+](=O)[O-])c1)c1cccnc1 | -3.03% |
| Cc1ccsc1CCNC(=O)c1ccc(-c2ccccc2)s1 | -3.96% |
| CN1CCC(N(C)Cc2cccnc2)CC1 | -4.61% |
| COc1ccc(-c2cnc3c(O)ncnc3n2)cc1 | 2.27% |
| O=C(CCc1cn(Cc2ccc(F)cc2)c2ccccc12)N1CCOCC1 | 0.304% |
| Cc1ccnc(NC(=O)CSc2nc(C)c(CC(C)C)[nH]2)c1 | 2.62% |
| COc1cccc(C2(O)CC(C(F)(F)F)=NN2C(=O)C(C)C)c1 (stereo not drawn) | -4.63% |
| CN(C)C(=O)N[C@@H](CSCc1ccccc1)C(=O)NCC#N | 4.33% |
| CC(=O)c1cc2c(cc1NC(=O)c1ccc(Cl)c(Cl)c1)OCO2 | -0.884% |
| COc1cc2c(c(Br)c1OC)COC(=O)C21CCCC1 | 11.1% |
| Cc1ccc(Cc2c(C)nc3c(C(=O)NCCC(C)C)cnn3c2C)cc1 | -2.26% |
| Cc1ccc(C(=O)NCc2nc3nc(C)cc(C)n3n2)cc1 | 4.4% |
| Cc1ccc2oc(=O)c3cc(C(=O)Nc4cc(C)on4)sc3c2c1 | -0.646% |
| C=C1c2cc(OC)ccc2NC(=O)N1c1ccccc1 | -9.94% |
| CCOC(=O)c1c(C)[nH]c(C)c1S(=O)(=O)N1CCC(C(=O)NC2CCCc3ccccc32)CC1 (stereo not drawn) | -1.05% |
| CCCOc1cccc(C2c3c(-c4ccccc4O)n[nH]c3C(=O)N2Cc2ccncc2)c1 (stereo not drawn) | -5.33% |
| CCN1CCN(S(=O)(=O)c2ccc(-c3ccc(Cl)cc3)cc2)CC1 | -3.29% |
| Cc1cccc(-c2noc(CNC(=O)CCN3C(=O)c4ccccc4C3=O)n2)c1 | -3.24% |
| CC(C)CC(NC(=O)c1ccc(NC(=O)Nc2nncs2)cc1)C(=O)NCC#N (stereo not drawn) | -5.64% |
| CC(Oc1ccccc1)C(=O)Nc1nc2ccccc2s1 (stereo not drawn) | -0.872% |
| Cc1ccc(-c2cc3c(nn2)-c2ccccc2C3=O)cc1 | 2.86% |
| NC(=O)c1cc(S(=O)(=O)N(CCc2ccncc2)CC2CCCO2)cs1 (stereo not drawn) | -2.86% |
| CC(=O)OC1(c2ccccc2)CC(C)CN(C(C)(C)C)C1 (stereo not drawn) | 2.22% |
